Source: the supplement of paper PMC12889115
This is one part of the list. Repeats are few or missing, and single values can be far off.

Test system: Salmonella enterica serovar Typhimurium SL1344
Experiment: bacterial growth OD600 after 18 h in MHB with 0.5 µg/mL polymyxin B; higher = more bacterial growth (less inhibition)
Details: 25 µM; polymyxin B 0.5 µg/mL; system: broth
Method: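 Secondary screen of the 553 primary hits at 25 µM. (i) S. Typhimurium SL1344 grown in Mueller-Hinton broth with 0.5 µg/mL polymyxin B, OD600 read after 18 h. (ii) SAFIRE assay: RAW 264.7 macrophages infected with S. Typhimurium sifB::gfp (MOI 30); compound added 2 h post-infection; cells fixed at 18 h; GFP-positive pixel fraction per macrophage imaged by confocal microscopy and expressed as % of DMSO control.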
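Also: polymyxin B level opens the outer membrane while sparing the inner membrane, with novobiocin wells as reference growth inhibitor.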

SMILES | bacterial growth OD600
CCN1C(=O)CC(CC(=O)N(CC2CCC2)CC2CCCO2)(c2cccc(C(F)(F)F)c2)C1=O (stereo unspecified) | 0.004
CN(Cc1ccccc1)C1(C(=O)NCCc2c[nH]cn2)Cc2ccccc2C1 | 0.006
COc1cc(C(=O)N(Cc2cccc(OCCc3cccs3)c2)C2CCCC2)cc(OC)c1OC | 0.004
Cc1c(C(=O)NCC2COc3ccccc3O2)cnn1-c1ncc2c(n1)-c1ccccc1CCC2 (stereo unspecified) | 0.007
COc1cccc(C2c3[nH]c4ccccc4c3CCN2Cc2ccco2)c1OC (stereo unspecified) | 0.008
CCOC(=O)C1(CCCc2ccccc2)CCN(C(=O)C2CC23CCC3)CC1 (stereo unspecified) | -0.001
O=C(c1cc2ccccc2s1)N1CCCC(Nc2ccc3c(c2)OCCO3)C1 (stereo unspecified) | 0.004
CN(CC1CCCCO1)C(=O)c1cn(Cc2ccc(Cl)cc2)nn1 (stereo unspecified) | 0.524
O=C(NCC1OCCc2ccccc21)c1coc(COc2ccccc2)n1 (stereo unspecified) | 0.19
Cc1ccccc1CN1C[C@@H]2C[C@@H](c3cc(CC(C)C)[nH]n3)N3CCC[C@@]23C1=O | 0.42
O=C(CC1(c2ccc(-c3ccccc3)cc2)CC(=O)N(C2CC2)C1=O)N(CCO)Cc1ccccc1 (stereo unspecified) | -0.024
Cc1nc(C(=O)NCc2nc(-c3ccccc3NC(=O)CC3CCCC3)oc2C)cs1 | -0.002
C=CCC(=O)N1CCCC1C(=O)Nc1ccc(-c2cccc(OC)c2)cc1 (stereo unspecified) | 0.346
CCOC(=O)C1(Cc2ccc(F)cc2)CCCN(C(=O)c2cn3c(C)cccc3n2)C1 (stereo unspecified) | 0.551
CN(Cc1ccccc1)C(=O)c1cn(CCCc2ccccc2)nn1 | 0.404
CC(=O)Nc1ccc(C(=O)N2CCCC(Nc3cccc(F)c3)C2)cc1 (stereo unspecified) | 0.576

SMILES | bacterial growth OD600
c1ccc(-c2ccc(-c3n[nH]cc3CN3CCN(c4ncccn4)CC3)cc2)cc1 | 0.003
CCC1CN(C(=O)c2cccc(Cn3cccn3)c2)Cc2ccc(Cl)cc2O1 (stereo unspecified) | 0
CN(Cc1ccc(F)cc1)c1ccc(OCC(=O)NCC2(N3CCOCC3)CCCCC2)nn1 | 0.553
COc1ccc(-c2cnnc(NCc3c[nH]nc3-c3ccc(F)cc3)n2)cc1OC | 0.005
CCCN(CC1CC1)C(=O)CC1(c2ccc(-c3ccccc3)cc2)CC(=O)N(C2CC2)C1=O (stereo unspecified) | -0.01
CCN(Cc1ccccc1)Cc1cnc(S(=O)(=O)C(C)C)n1CCc1ccccc1 | -0.021
Cc1ccc2occ(CN3CCOc4ccc(C(O)CCc5ccccc5)cc4C3)c(=O)c2c1 (stereo unspecified) | -0.009
O=C(c1cccc(F)c1)N(Cc1ccncc1)Cc1cccc(OCCc2ccc(F)cc2)c1 | -0.007
O=C(CCc1nnc(-c2ccc(-c3ccccc3)cc2)o1)N1CCCCCCC1 | -0.009
CN1C(=O)CC(CC(=O)N(CC2CC2)CC2CCCO2)(c2ccc(-c3ccccc3)cc2)C1=O (stereo unspecified) | -0.005
COc1ccc(OC)c(-c2cc(Cl)c3c(c2)CC(CNC(=O)Cc2cn4ccsc4n2)O3)c1 (stereo unspecified) | 0.002
CCOC(=O)C1(C/C=C/c2ccccc2)CCCN(Cc2ccncc2)C1 (stereo unspecified) | 0.067
Cc1cccc(-c2cnc(-c3ccncc3)nc2C2CCN(C(=O)c3cc(CC(C)C)on3)CC2)c1 | -0.001
CCOC(=O)N1CCN(c2nncc(-c3ccc4ccccc4c3)n2)CC1 | -0.013
CC1CN(Cc2ccc3nsnc3c2)Cc2cc(Cl)ccc2O1 (stereo unspecified) | 0.009
